Measured values reported in PubChem BioAssay (NCATS).
This list was built around the results that the source calls inconclusive (neither active nor inactive); the mix of calls is not that of the screen. For some assays here: A potency beside an inconclusive call is a rough fit, not a confirmed value. For some assays here: “Side channel” marks fits to a control or component signal instead of the main read-out. Active and inactive are the calls of the source. Unless noted, the call rests on the fitted dose curve; in most records, active means well fitted curve in the direction sought with a large enough effect; inconclusive means small, poorly fitted or top-dose-only effect, or another doubt; inactive means no such curve, though single readings can be large; an effect the other way counts as inactive or inconclusive.

Assays:
[1] = target: Cytochrome P450 2C19 (Homo sapiens) (UniProt P33261); experiment: qHTS Assay for Inhibitors and Substrates of Cytochrome P450 2C19 (AID 899); further: potency means the concentration at half of the fitted maximal effect; nearly all actives have a fitted effect of over 60% in size
UniProt P33261, sequence (P33261 whole entry, looked up): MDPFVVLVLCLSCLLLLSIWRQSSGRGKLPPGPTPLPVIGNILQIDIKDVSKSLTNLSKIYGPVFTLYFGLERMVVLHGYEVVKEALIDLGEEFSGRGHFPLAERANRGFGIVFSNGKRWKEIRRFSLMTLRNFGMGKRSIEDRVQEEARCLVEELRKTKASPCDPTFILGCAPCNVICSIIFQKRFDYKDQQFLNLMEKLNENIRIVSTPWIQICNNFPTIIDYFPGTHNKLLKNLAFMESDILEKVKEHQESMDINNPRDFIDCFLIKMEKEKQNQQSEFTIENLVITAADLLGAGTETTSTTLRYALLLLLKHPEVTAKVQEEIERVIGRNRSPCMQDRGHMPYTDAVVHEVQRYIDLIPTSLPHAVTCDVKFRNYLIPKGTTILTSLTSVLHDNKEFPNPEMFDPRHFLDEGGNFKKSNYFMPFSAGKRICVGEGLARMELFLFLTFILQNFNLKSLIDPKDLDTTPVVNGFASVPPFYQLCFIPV
Summary of the method: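 Human CYP2C19 (5nM) with Luciferin-H EGE at 10uM (its KM) in 50mM KPO4 was preincubated with compound for 10 min at 37C. NADPH regeneration started a 60 min 37C reaction. Luciferin was read by luminescence, normalized to 57uM ketoconazole.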

[2] = qHTS Assay for Lipid Storage Modulators (AID 1519; calls by dose curve; further: potency means the concentration at half of the fitted maximal effect); settings: Drosophila S3 cells, BODIPY lipid droplet/cell ratio, laser cytometry, cells loaded with oleic acid; activity change, negative = inhibition: at 57.5 µM (top of the series) unless noted
Summary of the method: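 Cells seeded at 5,000 per well were treated with compounds over a concentration series and loaded with oleic acid (400 uM, as added). Lipid droplet fluorescence (488 nm excitation, 500-530 nm channel) was read by laser-scanning cytometry and normalized to 20 uM Triacsin C.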

[3] = target: Ubiquitin carboxyl-terminal hydrolase 1 (Homo sapiens) (UniProt O94782); experiment: Inhibitors of USP1/UAF1: Pilot qHTS (AID 504865);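 further: rhodamine fluorescence freed from ubiquitin-rhodamine substrate followed over time; potency means the concentration at half of the fitted maximal effect; nearly all actives have a fitted effect of over 35% in size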
UniProt O94782, sequence (O94782 whole entry, looked up): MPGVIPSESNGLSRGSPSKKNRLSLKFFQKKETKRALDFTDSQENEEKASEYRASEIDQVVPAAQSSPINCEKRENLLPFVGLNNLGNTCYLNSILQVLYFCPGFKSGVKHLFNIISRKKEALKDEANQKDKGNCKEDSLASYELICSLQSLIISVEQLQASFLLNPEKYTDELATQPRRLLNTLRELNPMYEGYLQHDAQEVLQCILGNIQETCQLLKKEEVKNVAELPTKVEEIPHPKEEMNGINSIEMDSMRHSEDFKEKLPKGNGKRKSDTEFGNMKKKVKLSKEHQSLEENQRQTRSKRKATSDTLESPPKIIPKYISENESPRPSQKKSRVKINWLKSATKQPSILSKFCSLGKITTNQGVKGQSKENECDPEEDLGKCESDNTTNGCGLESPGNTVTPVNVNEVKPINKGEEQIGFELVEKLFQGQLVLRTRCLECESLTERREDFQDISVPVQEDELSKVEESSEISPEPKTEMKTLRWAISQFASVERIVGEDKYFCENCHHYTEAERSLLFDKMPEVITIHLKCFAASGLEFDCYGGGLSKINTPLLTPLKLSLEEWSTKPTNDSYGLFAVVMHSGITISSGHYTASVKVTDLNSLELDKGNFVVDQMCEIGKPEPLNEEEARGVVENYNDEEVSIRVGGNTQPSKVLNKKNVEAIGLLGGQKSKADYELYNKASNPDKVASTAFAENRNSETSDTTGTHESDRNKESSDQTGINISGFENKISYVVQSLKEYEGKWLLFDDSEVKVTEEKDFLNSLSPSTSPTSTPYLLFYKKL
Summary of the method: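 Deubiquitinase activity followed as kinetic rhodamine fluorescence release from 150 nM Ub-Rho. 1 nM USP1/UAF1 with compound, after 15 min room-temperature preincubation, in HEPES pH 7.8 buffer containing TCEP, EDTA, BSA and Tween-20.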

[4] = tested on: Zika virus NS2B-NS3 protease; experiment: Primary screen GU AMC qHTS for Zika virus inhibitors (AID 1347154); further: nearly all actives have a fitted effect of over 70% in size; further: potency means the concentration at half of the fitted maximal effect;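 on activity change, negative = inhibition: 0% = no-inhibitor control and -100% = no-enzyme control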
Summary of the method: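 Unlinked Zika NS2B hydrophilic domain/NS3 protease domain noncovalent complex (25 nM final) in 10 mM Tris-HCl pH 8.0, 0.01% Tween 20, with AMC peptide substrate. Fluorescence (ex 340, em 450 nm) change over 15 min, room temperature; percent inhibition fitted to 4-parameter Hill equation.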

[5] = Primary qHTS for small molecule stabilizers of the endoplasmic reticulum resident proteome: Secreted ER Calcium Modulated Protein (SERCaMP) assay (AID 1508630); settings: SH-SY5Y GLuc-SERCaMP (Gaussia luciferase released on ER calcium loss) secretion, thapsigargin, luminescence; activity change, negative = inhibition: at 38.4 µM (top of the series) unless noted; further: potency means the concentration at half of the fitted maximal effect; on activity change, negative = inhibition: on the % scale 0 is the no-effect control and ±100 the full control effect
Summary of the method: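 The SH-SY5Y reporter protocol was run at 3 concentrations up to 38.3 uM (primary) or 11 concentrations (follow-up): 16 h compound, 100 nM thapsigargin for 4 h, then extracellular luciferase luminescence.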

[6] = target: Mitogen-activated protein kinase 10 (Mus musculus) (UniProt Q61831); experiment: JNK3 AlphaScreen Assay (AID 530; active means well fitted curve in either direction with a large enough effect, not every such curve was filed as active; inconclusive means small, poorly fitted or top-dose-only effect, or another doubt;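 further: kinase came from lysate of stimulated human HepG2 cells; signal reports phosphorylation of biotinylated GST-cJun 1-79 at Ser73 with 10 µM ATP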; further: potency means the concentration at half of the fitted maximal effect); settings: JNK3 lysate, c-Jun phosphorylation; activity change, negative = inhibition: at 57.1 µM (top of the series)
Summary of the method: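 Phosphorylation of biotinylated GST-cJun(1-79) at Ser73 is measured by AlphaScreen proximity luminescence. Enzyme is JNK3 in HepG2 lysates activated with interleukin-1beta and tumor necrosis factor alpha; ATP is 10 uM final.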

[7] = target: 3',5'-cyclic-AMP phosphodiesterase 4B (Homo sapiens) (UniProt Q07343); experiment: qHTS Assay for Inhibitors of PDE-IV (AID 607; active means well fitted activation curve with a large enough effect in the main read-out, with a control signal flat, not every such curve was filed as active; inconclusive means small, poorly fitted or top-dose-only effect, or effect the other way, or a change in a side signal; further: potency means the concentration at half of the fitted maximal effect); settings: HEK293 ACTOne CNG channel cells, membrane potential fluorescence; activation (PDE inhibition): at 22.9 µM (top of the series)
UniProt Q07343, sequence (Q07343 whole entry, looked up): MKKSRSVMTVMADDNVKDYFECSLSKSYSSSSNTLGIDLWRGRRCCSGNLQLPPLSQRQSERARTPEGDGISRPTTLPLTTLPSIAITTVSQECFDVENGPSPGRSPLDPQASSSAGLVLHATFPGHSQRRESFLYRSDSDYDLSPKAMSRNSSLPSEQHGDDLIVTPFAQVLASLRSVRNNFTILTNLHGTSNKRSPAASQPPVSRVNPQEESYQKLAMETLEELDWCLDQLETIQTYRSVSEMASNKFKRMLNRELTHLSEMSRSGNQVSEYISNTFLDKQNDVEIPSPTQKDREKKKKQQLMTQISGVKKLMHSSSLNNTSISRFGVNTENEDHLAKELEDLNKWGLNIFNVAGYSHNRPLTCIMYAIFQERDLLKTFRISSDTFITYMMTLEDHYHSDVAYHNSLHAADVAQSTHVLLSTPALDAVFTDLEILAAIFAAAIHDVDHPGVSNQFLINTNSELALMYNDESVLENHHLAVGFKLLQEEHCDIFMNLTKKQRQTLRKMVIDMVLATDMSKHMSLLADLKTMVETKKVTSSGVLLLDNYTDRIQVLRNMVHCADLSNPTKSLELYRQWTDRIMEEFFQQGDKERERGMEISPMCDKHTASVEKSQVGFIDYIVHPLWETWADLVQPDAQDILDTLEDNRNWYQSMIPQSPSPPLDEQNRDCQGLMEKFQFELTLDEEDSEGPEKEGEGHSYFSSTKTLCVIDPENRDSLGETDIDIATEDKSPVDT
Summary of the method: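 The readout is membrane depolarisation from a cAMP-sensing CNG channel, detected with a potential dye at ex 535/em 590. Cells were HEK293-derived (endogenous PDE-IV) at 1000 cells/well, titrated up to 22.9 uM final.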

[8] = Stat Signaling Pathway (AID 446; active means well fitted curve in either direction with a large enough effect, not every such curve was filed as active; inconclusive means small, poorly fitted or top-dose-only effect, or another doubt;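 further: ME-180 cervical cancer cells given 40 pM IL-6 alongside compound; SIE-controlled beta-lactamase reporter measured as 460/530 nm FRET emission ratio; top concentration of the series differs between compounds; on the % scale 0 is the no-effect control and ±100 the full control effect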); settings: ME-180 SIE beta-lactamase reporter, IL-6 stimulated, 5 h; at 7.69 µM (top of the series) unless noted
Summary of the method: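 Emission at 460 and 530 nm (excitation 405 nm) reports SIE-controlled beta-lactamase in ME-180 cells. Cells received compound with 40 pM IL-6 for 5 hrs at 37 C; data scaled between 300 pM IL-6 and 125 nM JAK-inhibitor controls.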

[9] = target: Glucocorticoid receptor (Homo sapiens) (UniProt P04150); experiment: GR-GFP Redistribution (AID 450;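 active means compounds whose dose series gives a full or clear partial fitted curve of increased nuclear translocation; inconclusive means weak partial curve or effect only at the top dose; inactive means no dose-dependent translocation response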; further: potency means the concentration at half of the fitted maximal effect); settings: U2OS GR-GFP nuclear translocation, laser cytometry, 2 h
UniProt P04150, sequence (P04150 whole entry, looked up): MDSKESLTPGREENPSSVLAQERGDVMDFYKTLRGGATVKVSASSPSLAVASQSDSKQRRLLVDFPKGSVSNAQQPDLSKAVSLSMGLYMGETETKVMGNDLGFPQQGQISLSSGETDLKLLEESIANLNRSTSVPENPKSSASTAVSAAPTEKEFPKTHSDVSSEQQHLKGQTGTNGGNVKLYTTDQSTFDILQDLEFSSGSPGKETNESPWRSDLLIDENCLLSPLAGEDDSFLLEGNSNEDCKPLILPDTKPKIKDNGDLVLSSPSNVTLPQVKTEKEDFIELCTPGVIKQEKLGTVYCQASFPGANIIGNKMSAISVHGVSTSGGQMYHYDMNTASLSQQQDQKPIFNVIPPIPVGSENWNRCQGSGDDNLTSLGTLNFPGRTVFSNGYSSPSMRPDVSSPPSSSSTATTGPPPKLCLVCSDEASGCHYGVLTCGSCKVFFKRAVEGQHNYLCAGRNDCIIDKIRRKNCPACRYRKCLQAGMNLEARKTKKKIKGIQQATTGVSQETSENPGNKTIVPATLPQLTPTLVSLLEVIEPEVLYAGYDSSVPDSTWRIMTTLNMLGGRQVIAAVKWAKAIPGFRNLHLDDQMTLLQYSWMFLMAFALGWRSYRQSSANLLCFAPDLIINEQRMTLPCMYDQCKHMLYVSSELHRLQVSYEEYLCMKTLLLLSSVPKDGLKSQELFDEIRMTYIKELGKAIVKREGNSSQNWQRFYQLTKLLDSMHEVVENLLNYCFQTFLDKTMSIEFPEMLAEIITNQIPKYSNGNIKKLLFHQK

[10] = qHTS Assay for Identification of Small Molecule Antagonists for NFkB Signaling Pathway (AID 895; active means well fitted inhibition curve with a large enough effect in the signal ratio, with a control signal flat, not every such curve was filed as active; inconclusive means small, poorly fitted or top-dose-only effect, or effect the other way, or a change in a side signal; the % refers to the signal ratio; further: potency means the concentration at half of the fitted maximal effect); settings: NFkB beta-lactamase reporter cells, FRET ratio 460/530, stimulated with 10 pM TNF alpha; activity change, negative = inhibition: at 38.3 µM (top of the series)
Summary of the method: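 NFkB-bla ME-180 cervical carcinoma cells with beta-lactamase reporter under NFkB response element; compounds added, then TNF alpha at 10 pM final (EC50), 5 h at 37 C. LiveBLAzer substrate 2 h, room temperature; emission 460/530 nm at 405 nm excitation.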

[11] = qHTS Assay for Identification of Small Molecule Agonists for Hypoxia Response Element Signaling Pathway (AID 914; active means well fitted activation curve with a large enough effect in the signal ratio, with a control signal flat, not every such curve was filed as active; inconclusive means small, poorly fitted or top-dose-only effect, or effect the other way, or a change in a side signal; the % refers to the signal ratio; further: potency means the concentration at half of the fitted maximal effect); settings: ME-180 HRE-bla reporter, beta-lactamase ratio, CoCl2, 17 h; activation: active compounds read high
Summary of the method: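 Positive modulation of EC50 CoCl2-induced hypoxia response element signaling is measured in ME-180 cells with a beta-lactamase reporter. Compounds are titrated, incubation runs 17 hours, and %Activity derives from the blue/green ratio.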

[12] = qHTS Assay for Identification of Small Molecule Agonists for Thrombopoietin (TPO) Signaling Pathway (AID 917); further: potency means the concentration at half of the fitted maximal effect
Summary of the method: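 Luciferase reporter (Glycoprotein IIb promoter) in IL-3-deprived Ba/F3 cells carrying human TPO receptor; compounds co-added with 26 pM TPO, incubated 24 h, 37 C. Steadylite luminescence measured after 10 min.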

[13] = AP1 Signaling Pathway (AID 357; active means well fitted curve in either direction with a large enough effect, not every such curve was filed as active; inconclusive means small, poorly fitted or top-dose-only effect, or another doubt; further: top concentration of the series differs between compounds; on the % scale 0 is the no-effect control and ±100 the full control effect); settings: ME-180 (cervical carcinoma) AP-1-bla reporter, EGF-induced, beta-lactamase ratio, 5 h; at 7.69 µM (top of the series) unless noted
Summary of the method: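 AP-1-bla ME-180 cells with beta-lactamase reporter under AP-1 response element, stimulated with EC50 EGF; compounds titrated, 5 hours at 37 degrees Celsius. CCF4 read at 460/530 nm ratio; positive and negative modulators judged by AC50.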

[14] = NFAT Signaling Pathway (AID 444; active means well fitted curve in either direction with a large enough effect, not every such curve was filed as active; inconclusive means small, poorly fitted or top-dose-only effect, or another doubt;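 further: carbachol stimulus at about its EC50 of 1 µM final; on the % scale 0 is the no-effect control and ±100 the full control effect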); settings: Jurkat NFAT-bla M1, carbachol, beta-lactamase ratio, 5 h; at 7.69 µM (top of the series) unless noted
Summary of the method: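 Jurkat cells carrying an NFAT-driven β-lactamase reporter and co-transfected muscarinic M1 receptor were treated with compound plus carbachol (1 uM final, an EC50 level) for 5 h at 37 °C. CCF4 loading followed for 1 h at RT; 460/530 nm ratio gave %activity.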

[15] = target: Cytochrome P450 3A4 (Homo sapiens) (UniProt P08684); experiment: qHTS Assay for Activators of Cytochrome P450 3A4 (AID 885); further: nearly all actives have a fitted effect of over 65% in size
UniProt P08684, sequence (P08684 whole entry, looked up): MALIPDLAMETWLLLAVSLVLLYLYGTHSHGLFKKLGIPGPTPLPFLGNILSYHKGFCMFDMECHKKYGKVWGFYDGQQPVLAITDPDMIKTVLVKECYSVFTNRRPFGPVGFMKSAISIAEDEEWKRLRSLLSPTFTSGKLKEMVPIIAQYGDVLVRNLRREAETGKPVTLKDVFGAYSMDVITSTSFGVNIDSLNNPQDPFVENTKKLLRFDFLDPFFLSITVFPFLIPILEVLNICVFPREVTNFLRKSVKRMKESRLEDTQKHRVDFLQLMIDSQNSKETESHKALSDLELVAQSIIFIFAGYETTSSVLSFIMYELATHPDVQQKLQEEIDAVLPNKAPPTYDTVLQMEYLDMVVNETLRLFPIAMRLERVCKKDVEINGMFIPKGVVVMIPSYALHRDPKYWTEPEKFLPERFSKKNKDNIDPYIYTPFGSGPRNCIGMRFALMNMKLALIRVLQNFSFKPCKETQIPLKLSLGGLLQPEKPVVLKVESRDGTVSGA
Summary of the method: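 Activators are scored by enhanced luminescence from CYP3A4 conversion of luciferin-PPXE (25uM, equal to KM) to luciferin, after 60 min at RT with an NADPH-regenerating system.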
Tags describe the fitted curve by direction and shape or compound fluorescence and quenching.

## N[C@@H](Cc1cc(-c2ccc(Cl)cc2Cl)cc(CP(=O)(O)O)c1O)C(=O)O
[1]
  Potency: inconclusive: 7.94 µM [inhibitor, full curve]
[2]
  Potency: inconclusive: 22.4 µM [rising, single point]
[3]
  Potency: inconclusive: 50.1 µM [inhibitor, partial curve, poor fit]
[4]
  Potency: active: 23.8 µM
[5]
  Potency: inactive

## CCCNC(=O)N1N=C(c2ccc(N)cc2)c2cc3c(cc2[C@H]1C)OCO3
[6]
  Potency: inconclusive: 39.8 µM [inhibitor, single point]
[7]
  Potency: inconclusive: 12 µM [activator, partial curve]
[3]
  Potency: inconclusive: 56.2 µM [inhibitor, partial curve, poor fit]
[4]
  Potency: inconclusive: 21.2 µM [inhibitor, partial curve, poor fit]
[5]
  Potency: inactive

## Oc1ccc([C@@H]2CNCCc3c2cc(O)c(O)c3Cl)cc1
[8]
  activity, negative = inhibition: inactive: 18.7% [at 38 µM]
[9]
  Potency: inconclusive: 34.6 µM [single point]
[10]
  Potency: inconclusive: 11.2 µM [inhibitor, single point]
[11]
  Potency: inconclusive: 7.94 µM [inhibitor, full curve, poor fit]
[12]
  Potency: inconclusive: 12.6 µM [inhibitor, single point]
[2]
  activity change, negative = inhibition: inconclusive: 7.4%
[4]
  Potency: inconclusive: 8.44 µM [inhibitor, partial curve]
[5]
  Potency: inconclusive: 11.2 µM [inhibitor, partial curve, poor fit]

## O=[N+]([O-])c1cccc2c[nH]nc12
[7]
  Potency: inconclusive: 15.1 µM [inhibitor, partial curve, poor fit]
[3]
  Potency: inconclusive: 79.4 µM [inhibitor, partial curve, poor fit]
[4]
  Potency: inconclusive: 37.7 µM [inhibitor, single point]
[5]
  Potency: inactive

## CC(C)(C)c1ccc(S(=O)(=O)/C=C\C#N)cc1
[13]
  activity change, negative = inhibition: inconclusive: -105% [inhibitor] [at 38 µM]
[14]
  activity change, negative = inhibition: inconclusive: -20.2% [inhibitor] [at 38 µM]
[8]
  activity, negative = inhibition: inconclusive: -50.6% [inhibitor] [at 38 µM]
[6]
  Potency: inconclusive: 0.0126 µM [inhibitor, full curve, poor fit]
  activity change, negative = inhibition: inconclusive: 1.54%
[7]
  Potency: inconclusive: 9.51 µM [rising, partial curve]
[15]
  Potency: inactive
[10]
  Potency: inconclusive: 20 µM [cytotoxic, side channel, single point]
[12]
  Potency: inconclusive: 0.794 µM [inhibitor, full curve]
[2]
  Potency: active: 31.6 µM
[3]
  Potency: inconclusive: 89.1 µM [inhibitor, partial curve]
[4]
  Potency: inactive
[5]
  Potency: inactive
